Measurements published in the supplement of paper PMC3334620.
Over roughly 33,000 sequences, “E-score (-0.5 to 0.5)” has its median near -0.054; the highest 2% begin near 0.35. The list shows a part of the results.

These sequences were tested against T1, Stb5 (UniProt P38699) (assay: PBM E-score (8-mer binding enrichment) (E-score (-0.5 to 0.5)); higher = stronger / more preferred TF binding; most listed sequences are background and not binding sites). Conditions: protein concentration: 200 nM; construct: GST-full length.
T1 sequence: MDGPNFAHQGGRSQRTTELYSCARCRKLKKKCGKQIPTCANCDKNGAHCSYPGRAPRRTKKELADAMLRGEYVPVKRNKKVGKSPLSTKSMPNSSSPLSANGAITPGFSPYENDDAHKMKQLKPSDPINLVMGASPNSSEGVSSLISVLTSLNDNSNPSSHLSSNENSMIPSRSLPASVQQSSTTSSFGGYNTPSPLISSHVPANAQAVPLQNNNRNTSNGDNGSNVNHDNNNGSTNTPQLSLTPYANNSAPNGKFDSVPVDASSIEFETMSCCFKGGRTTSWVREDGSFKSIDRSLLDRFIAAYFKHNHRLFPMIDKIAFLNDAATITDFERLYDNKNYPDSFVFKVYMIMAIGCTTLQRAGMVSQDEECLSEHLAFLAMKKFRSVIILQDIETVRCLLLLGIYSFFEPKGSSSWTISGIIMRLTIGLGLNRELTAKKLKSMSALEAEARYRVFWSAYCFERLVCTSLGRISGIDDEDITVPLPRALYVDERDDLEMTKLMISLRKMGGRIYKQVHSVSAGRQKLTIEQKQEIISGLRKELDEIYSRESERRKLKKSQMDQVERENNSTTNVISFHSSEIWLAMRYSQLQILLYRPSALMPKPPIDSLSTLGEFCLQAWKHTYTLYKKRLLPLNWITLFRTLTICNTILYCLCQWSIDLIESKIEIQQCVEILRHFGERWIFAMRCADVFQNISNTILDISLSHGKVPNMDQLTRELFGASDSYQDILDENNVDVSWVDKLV
In short: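 Full-length yeast transcription factors or their DNA-binding domains, GST-tagged and expressed with PURExpress, were applied at about 100-200 nM to universal all-10-mer Agilent arrays. These arrays had been made double-stranded by primer extension on fresh or once-stripped slides. Detection used fluorescent anti-GST, normalisation used masliner, and E-scores for ungapped eight-base words pooled with reverse complements came from the Universal PBM Analysis Suite.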

Sequence	PBM E-score
AACACTAT	-0.0598
AGTGTCAC	-0.0789
AGAGTAAG	-0.182
CCGTGCAA	0.168
GGATGACC	-0.0273
CTTCAAAA	-0.214
CAGTCAGC	-0.0989
AAAATGGA	0.00203
GAATCGAA	-0.175
ACTCAATA	-0.108
CATGTACG	-0.0511
GCAATAAC	0.131
GACCGACA	0.341
GCTTTATA	0.129
AATAGGAC	-0.0226
AATCGTAC	-0.0685
ATAGTATA	0.0619
CAGCGTTC	-0.0601
AATGTATA	-0.00655
GCATGGAA	0.139
ACTACTCT	-0.174
GACCGAGC	0.12
ACTGGACA	-0.0751
ACGTGACA	-0.282

Sequence	PBM E-score
AGAAACCT	-0.00738
ACACCGAA	0.386
GTCCGTCA	0.266
AGCGTCTA	-0.14
AAGTGACT	-0.193
CCTGGTGA	-0.138
CAATCTCC	0.218
AACCCGAC	0.347
AGCCCAAA	0.106
GGCGCAAA	0.177
CCCGCCAA	0.257
GCCAGAGC	-0.199
CGGGCGGC	0.308
ACAGCAGT	-0.25
CGTGGGTC	-0.152
AGAGGGAC	-0.314
ATGTTTCC	0.0736
AAACTCAA	-0.143
CGAAGCGA	-0.0307
CCCAATGC	-0.214
CCCTGGTC	-0.293
ACCTGAAT	-0.133
GTAATTTA	0.0378
GCGCGGAC	0.292

Sequence	PBM E-score
CGTTTTAA	0.046
ACCAAAGG	-0.0701
CTAACTCA	-0.0296
ATCGAACA	-0.0252
CTAGATTC	-0.168
CGGATGGC	0.1
GCGTTCGA	-0.0361
ACATTTTA	-0.0834
ACTCCACA	-0.262
ATTCGGGC	0.155
CTACTCAC	-0.129
AACGGTTG	-0.122
GAGTATAA	0.115
TCCCTAAA	-0.0585
AGACGGAA	0.218
ACGAATTA	-0.0884
AAAGTGAA	-0.155
GGCTGGTA	-0.102
CCGATTCC	0.267
AGGTGCAG	-0.16
CCATCGGG	0.262
AGTTGTGC	-0.214
ATACTGGC	-0.207
AACGTGGT	-0.126

Sequence	PBM E-score
GATCCACC	-0.0814
AGAGCCCA	-0.22
GAATTCTC	0.0968
GCTCATAC	0.0142
ATGAAGAA	-0.087
GAAAGCCC	0.308
ATCAAGCA	-0.19
CTGCGGTC	0.246
TATGACGA	0.0645
AGTCTATG	-0.219
CCTTAAAA	-0.313
ATCCATAG	0.0827
CCAGTATA	-0.066
GGTGCAAC	0.154
GAGTCGGA	0.307
ACGCCGAG	0.27
AGCTCGCG	-0.147
CACGACCG	0.115
AGGACGCG	-0.116
AAAAGACG	-0.0626
ACGTCTGC	-0.202
ACAAGTTA	0.0827
